Measured values reported in article PMC4336329 (PLoS ONE, 2015).
In all, about 310,000 compounds went through this assay and about 14,000 (4.5%) showed an effect of 50% or more. Effects have a minus sign here. The list shows a part of the results.

The compounds below were run against human ether-à-go-go-related gene (hERG) potassium channel (human, UniProt Q12809) (assay: primary screen, population patch clamp on CHO cells stably expressing hERG).
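Note: peak tail current of the secondary pulse compared with the same well before compound.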

human ether-à-go-go-related gene (hERG) potassium channel, sequence (Q12809 whole entry, looked up): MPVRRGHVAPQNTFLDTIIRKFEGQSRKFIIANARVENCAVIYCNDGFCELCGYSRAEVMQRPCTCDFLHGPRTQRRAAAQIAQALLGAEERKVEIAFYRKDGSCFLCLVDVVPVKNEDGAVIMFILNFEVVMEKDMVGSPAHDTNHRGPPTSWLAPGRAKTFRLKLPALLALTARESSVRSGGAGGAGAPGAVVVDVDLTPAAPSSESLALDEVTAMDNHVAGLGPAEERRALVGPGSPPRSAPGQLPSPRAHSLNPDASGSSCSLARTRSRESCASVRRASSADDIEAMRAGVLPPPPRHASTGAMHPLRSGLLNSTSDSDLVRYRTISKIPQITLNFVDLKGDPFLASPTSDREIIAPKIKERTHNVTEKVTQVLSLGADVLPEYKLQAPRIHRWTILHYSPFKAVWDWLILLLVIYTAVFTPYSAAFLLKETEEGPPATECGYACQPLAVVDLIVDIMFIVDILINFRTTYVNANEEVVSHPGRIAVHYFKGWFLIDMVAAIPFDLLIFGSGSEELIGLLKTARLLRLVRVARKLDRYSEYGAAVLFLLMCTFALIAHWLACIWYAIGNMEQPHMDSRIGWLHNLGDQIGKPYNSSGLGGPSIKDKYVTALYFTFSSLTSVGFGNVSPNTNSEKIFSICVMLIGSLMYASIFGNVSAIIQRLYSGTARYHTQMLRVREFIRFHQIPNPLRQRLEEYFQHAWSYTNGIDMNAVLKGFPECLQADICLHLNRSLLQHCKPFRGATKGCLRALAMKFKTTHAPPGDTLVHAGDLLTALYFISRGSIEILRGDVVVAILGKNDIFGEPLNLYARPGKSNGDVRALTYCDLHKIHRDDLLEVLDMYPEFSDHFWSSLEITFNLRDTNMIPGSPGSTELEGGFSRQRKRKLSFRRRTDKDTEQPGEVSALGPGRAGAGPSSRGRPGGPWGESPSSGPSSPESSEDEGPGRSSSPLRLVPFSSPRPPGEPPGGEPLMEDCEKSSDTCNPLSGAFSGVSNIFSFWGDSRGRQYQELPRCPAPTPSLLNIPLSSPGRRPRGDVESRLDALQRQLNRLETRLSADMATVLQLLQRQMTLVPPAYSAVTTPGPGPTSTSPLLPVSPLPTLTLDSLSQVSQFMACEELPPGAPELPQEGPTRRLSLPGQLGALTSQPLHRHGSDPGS

Row | Compound | hERG current change (%, negative = inhibition) at 10uM [%]
1 | COc1ccc2oc3c(c2c1)NC(=O)CN=C3c1ccccc1 | 14.9
2 | O=C(O)c1ccccc1NC(=S)NC(=O)c1cccc2ccccc12 | 14.3
3 | Brc1ccc(N=NNc2ccccc2)cc1 | 19
4 | O=C(Nc1cccc(S(=O)(=O)NC2=NCCC2)c1)c1cc(=O)[nH]c2ccccc12 | 9.37
5 | COc1ccccc1Nc1nc(N)nc(CSC(=S)N2CCOCC2)n1 | -9.92
6 | O=C(CCc1nnc2ccc(NCc3ccco3)nn12)Nc1cccc(F)c1 | 10.5
7 | Cc1cc(C)c(S(=O)(=O)c2ccc(F)cc2C)c(Cl)n1 | 2.43
8 | Nn1c(SCC(=O)Nc2ccc3c(c2)OCO3)nnc1-c1ccncc1 | -6.46
9 | CCS(=O)(=O)NCC(c1ccco1)N1CCN(c2ccccc2)CC1 (stereo not shown) | -2.3
10 | COc1ccc(NC(=O)c2ccc(S(=O)(=O)N(C)C)cc2)cc1OC | -5.96
11 | CCOc1ccccc1NC(=O)c1cc(C(=O)c2cc(Br)ccc2O)coc1=N | 23.1
12 | COc1ccc(CCN(C)C(=O)c2ccc(S(=O)(=O)Nc3ccccc3F)cc2)cc1OC | -10.1
13 | O=C(c1ccccc1)N(Cc1ccc(F)cc1)C1CCS(=O)(=O)C1 (stereo not shown) | 0.909
14 | O=C(Cc1coc2ccc3ccccc3c12)NCc1cccs1 | 12.7
15 | CC(C)(C)C1CCC(OCC(O)CN2CCN(c3ccccn3)CC2)CC1.Cl (stereo not shown) | -0.157
16 | COc1ccc(OC)c(S(=O)(=O)Nc2c(C)n(C)n(-c3ccccc3)c2=O)c1 | -9.06
17 | CS(=O)(=O)Nc1ccc2c(c1)C(=O)OC2 | 13.2
18 | CC(=O)Nc1nc(SCCCc2ccccc2)n[nH]1 | -19.8
19 | O=C(Nc1cccnc1)C1(c2ccccc2)CCCC1 | 4.11
20 | COc1ccc(N=Cc2cc(Cl)ccc2O)cc1Cl | 4.17
21 | Cc1c(CCCC(=O)O)sc(N)c1C(=O)c1cccc(C(F)(F)F)c1 | 4.45
22 | COCCNc1ccc([N+](=O)[O-])cc1C(=O)Nc1cccc(C)n1 | -62.7

Row | Compound | hERG current change (%, negative = inhibition) at 10uM [%]
23 | O=C1Nc2ccccc2N=C(c2ccccc2)c2ccccc21 | -15.6
24 | CCc1noc(C)c1C(=O)N(CC)CC(=O)NCc1ccc(Cl)cc1 | 2.57
25 | Cc1ccc(C)c(NC(=O)CSc2sc3c(O)cc(=O)[nH]c3c2C#N)c1 | 6.37
26 | O=C(COC(=O)CNC(=O)c1ccccc1)Nc1cccc(Br)c1 | 1.68
27 | O=C(NCCc1ccccc1)C1CCC(Cn2c(=O)c3ccccc3n(Cc3cccnc3)c2=O)CC1 (stereo not shown) | -37.3
28 | CCc1cc(-c2n[nH]c(C)c2-c2nc(C)cs2)c(O)cc1OC | 1.52
29 | CCC(=O)Nc1cccc(NC(=O)c2cccc([N+](=O)[O-])c2C)c1 | -1.36
30 | COc1ccnc2c1c(=O)n(Cc1cccc(Cl)c1)c(=O)n2C | -3.57
31 | CSc1sccc1/C=N/O | 18.6
32 | CC(C)Oc1ccccc1OCCN(C)C.O=C(O)C(=O)O | 6.22
33 | COc1ccc(OCC(=O)NC2CCCCCCC2)cc1 | 5.97
34 | COC(C(=O)Nc1ccc(F)cc1F)c1ccccc1 (stereo not shown) | -2.33
35 | COc1cc(CCC(=O)OCC(=O)Nc2cccc(S(=O)(=O)N(C)C)c2)cc(OC)c1OC | -3.79
36 | CC(=O)NC(Cc1ccc(F)cc1)C(=O)NC1CCN(C(=O)Nc2ccc(F)cc2)CC1 (stereo not shown) | -5
37 | CC1Cc2ccccc2N1C(=O)CCn1c(=O)oc2ccccc21 (stereo not shown) | 0.667
38 | Cc1cc(C)n2nc(C(=O)OCC(=O)c3cc(C)n(CC4CCCO4)c3C)nc2n1 (stereo not shown) | 13.7
39 | Cc1oc(-c2cc(F)cc(F)c2)nc1CN1CCSCC1 | 1.04
40 | COc1ccc2c(c1)n([O-])c1c([n+]2=O)CCC1 | 0.55
41 | COc1ccc(NC(=O)[C@H](C)NC(=O)C2CCN(S(=O)(=O)c3ccc(C)cc3)CC2)cc1 | 5.52
42 | COc1ccc2[nH]cc(CCn3ccc(=O)c(C)c3C)c2c1 | 16.8
43 | Cc1ccc(NC(=O)c2cc(-c3ccccc3)n(CCCN3CCOCC3)c2C)cc1 | -35.6
44 | CCCC1C2C(=O)N(c3ccccc3OC)C(=O)C2ON1c1ccccc1 (stereo not shown) | 2.27

Row | Compound | hERG current change (%, negative = inhibition) at 10uM [%]
45 | O=C(CCc1nc(-c2ccccc2)no1)N1CCCC1 | 9.62
46 | CCc1ccccc1NC(=S)N(CCCN1CCOCC1)Cc1ccccn1 | -25.8
47 | CN(CC(=O)Nc1ccccc1Cl)C(=O)C1CSC2(C)CCC(=O)N12 (stereo not shown) | -5.11
48 | O=c1[nH]c(C(Cl)(Cl)Cl)nc2ccc3ccccc3c12 | 12.8
49 | O=C(NCCN1CCOCC1)c1sc2cc(Cl)ccc2c1Cl | -10.3
50 | CCCn1ccnc1SCC(=O)Nc1c(C)n(C)n(-c2ccccc2)c1=O | -13.3
51 | CCOC(=O)Nc1cccc(OCC(=O)Nc2ccc(OC)cc2OC)c1 | 2.2
52 | CCOCCCn1c(C)nc2c[n+](CC(=O)c3ccc4ccccc4c3)cc(Br)c21.[Br-] | -0.936
53 | Cc1cccc(Sc2ccc([N+](=O)[O-])cc2[N+](=O)[O-])n1 | 16.1
54 | CCOC(=O)c1sc(=NC(=O)c2cccc(OC)c2)n(C)c1C | -9.59
55 | CC(=O)c1cccc(NC(=S)NC(=O)Cc2ccc(Cl)cc2)c1 | 21.2
56 | CCCCOC(=O)/C=C/c1ccc(OC(=O)OC)c(OC(=O)OC)c1 | 2.74
57 | O=C(NCCCN1CCC(Cc2ccccc2)CC1)c1ccc2nc(N3CCOCC3)sc2c1 | -66.2
58 | CCCCn1nnnc1SCC(=O)Nc1cccc(C)c1 | -6.44
59 | CCN(CC(=O)NC(C)(C)C)C(=O)c1ccc2c(c1)S(=O)(=O)c1ccccc1C2=O | 11.2
60 | CCCN=C1N/C(=C\c2ccco2)C(=O)N1c1ccccc1 | 11
61 | O=C(O)c1ccc(S(=O)(=O)c2ccccc2C(=O)O)c([N+](=O)[O-])c1 | 27.3
62 | Cl.O=C1CN=C(Nc2cccc(C(F)(F)F)c2)N1C1CCCC1 | 2.27
63 | O=C(NCC1CCCO1)C1CCN(C2CCN(Cc3cccs3)CC2)CC1 (stereo not shown) | -64.2
64 | c1ccc(N2CCN(Cc3ccnc4ccccc34)CC2)cc1 | -0.764
65 | C/C(=N\NC(=O)c1ccccc1)C1C2C=CC(C2)C1(C)C (stereo not shown) | 7.67
66 | CCc1ccc(S(=O)(=O)Nc2ccc(-c3nc4cccnc4s3)cc2)s1 | 8.24

Row | Compound | hERG current change (%, negative = inhibition) at 10uM [%]
67 | CCO.CCSc1nc2ccccc2c(=O)n1-c1c(C)n(C)n(-c2ccccc2)c1=O | 5.74
68 | CCCCCNc1nc(-c2ccccc2)cs1 | 9.41
69 | O=C(NNC(=O)c1cc(-c2ccccc2)n(-c2ccccc2)n1)c1cccc([N+](=O)[O-])c1 | -34.2
70 | O=C(CSc1n[nH]c(=O)[nH]c1=O)c1ccc(Cl)cc1Cl | 16.1
71 | CC(C)(C)NC(=O)[C@@H]1C[C@@H]2CCCC[C@@H]2CN1C[C@@H](O)[C@H](Cc1ccccc1)NC(=O)[C@H](CC(N)=O)NC(=O)c1ccc2ccccc2n1 | -9.59
72 | CCc1nc(SCC(=O)Nc2nnc(CC)s2)c2c(C)c(C)sc2n1 | 8.99
73 | CC(C)C(O)(C#CCN1CCCCCC1)c1ccccc1.Cl (stereo not shown) | -33.1
74 | Cc1ccc(-n2nc3c(c2NC(=O)c2ccco2)CS(=O)(=O)C3)c(C)c1 | -11.9
75 | COc1ccc(C(=O)CSc2nnc(Cc3ccccc3)o2)cc1 | -4.54
76 | C=CCNC(=O)c1ccccc1NS(=O)(=O)c1ccccc1 | -10
77 | Cc1ccc(CN2[C@@H]3c4ccccc4C[C@@H]3OCCS2(=O)=O)cc1 | 3.84
78 | O=C(N/N=C/c1ccco1)c1cc([N+](=O)[O-])cc([N+](=O)[O-])c1 | 6.85
79 | O=Cc1ccc(C(=O)OCC(=O)Nc2ccc(F)cc2F)cc1 | 21.5
80 | CC(C(=O)Nc1ccc(Cl)cc1)N(C)Cc1cccs1 (stereo not shown) | -15
81 | Cc1nn(-c2ccccc2)c(C)c1/C=C1\C(=O)N(C)C(=S)N1C | -11.2
82 | CCC(C(=O)O)n1nnc(-c2ccc(OCc3ccccc3)c(OC)c2)n1 (stereo not shown) | 14.6
83 | CCCCNC(=S)N/N=C1\CCCCc2ccccc21 | -64.4
84 | CC(=O)NC(Cc1ccc(N(CCCl)CCCl)cc1)C(=O)NCC(=O)NCC(=O)O (stereo not shown) | 31.5
85 | Nc1ccc2nc(SCc3ccc([N+](=O)[O-])cc3)sc2c1 | -3.42
86 | O=C(COC(=O)/C=C/c1ccc(C(F)(F)F)cc1)NC1CC1 | 2.16
87 | CCOC(=O)c1c(S(=O)(=O)NCC(=O)N2CCN(c3ccccc3OC)CC2)c(C)n(C)c1C | 1.37
88 | CC(C)C(=O)Nc1ccc(C(=O)NNC(=O)c2cccs2)cc1 | 6.39
